These results are taken from the RNAGym collection of RNA variant scans (doi:10.1073/pnas.2313332121).

B1: TPR 5TU (parent)
chain: GGAUCUUCUCGAUCUAACAAAAAAGACAAAUCUGCCACAAAGCUUGAGAGCAUCUUCGGAUGCAGAGGCGGCAGCCUUCGGUGGCGCGAUAGCGCCAACGUUCUCAACUAUGACACGCAAAACGCGUGCUCCGUUGAAUGGAGUUUAUCAUG

This sample is rich in variants without activity.

This data set covers variants of B1. The data set is described as follows: polymerase ribozyme fitness, log enrichment relative to wild type (log ratio); higher = more active; in vitro selection for triplet polymerase activity. An outline of the steps: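 Mutant libraries for each subunit of a heterodimeric triplet polymerase ribozyme were made by PCR and then transcribed. Each library underwent one round of in vitro selection in triplicate: annealing with a biotinylated primer, the partner subunit and triplets, frozen incubation at −7 °C, gel excision of extended constructs, streptavidin-bead capture and RT-PCR. Input and output libraries were Illumina-sequenced, and only genotypes with ≥10 input reads and ≥1 read per output were kept. Fitness is the logarithm, base 2, of genotype enrichment over wild-type enrichment, computed from inverse-variance-weighted replicate averages.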
Turning to A41U G112C A120G U146C, the “polymerase ribozyme fitness (log ratio)” value is not above -4.2.

Regarding A40U G42A G68A C75G C93A A121U, the “polymerase ribozyme fitness (log ratio)” value is not above -4.2.

With A41G G50C C93G C103U C123A U127C, the “polymerase ribozyme fitness (log ratio)” value was not above -4.2.

With A41C A47C U55G C76A G81C C87G C96A G126U, the “polymerase ribozyme fitness (log ratio)” value is not above -4.2.

A41C U55A C75U A113G: the “polymerase ribozyme fitness (log ratio)” value is not above -4.2.

Consider A40U C69U C85G U104G U146G, for which the “polymerase ribozyme fitness (log ratio)” value was not above -4.2.

For A41U G68C G92C, the “polymerase ribozyme fitness (log ratio)” value was not above -4.2.

Consider A40U U77A U82A, for which the “polymerase ribozyme fitness (log ratio)” value is not above -4.2.

Consider A41U U44A A49C G81U C95U A107G G128A, for which the “polymerase ribozyme fitness (log ratio)” value is not above -4.2.

As to A40G G59C A66G G88C, the “polymerase ribozyme fitness (log ratio)” value was not above -4.2.

As for A41G A97G C149A, the “polymerase ribozyme fitness (log ratio)” value is not above -4.2.

For A40U A47G A60G C87G A91G G92A, the “polymerase ribozyme fitness (log ratio)” value was not above -4.2.

Regarding A40U G50U A60C A73G C85U U151G, the “polymerase ribozyme fitness (log ratio)” value was not above -4.2.

On to A41C G59A U61G A91G, for which the “polymerase ribozyme fitness (log ratio)” value is not above -4.2.

With A41C A60G C69U G83A A119G U151A, the “polymerase ribozyme fitness (log ratio)” value is not above -4.2.

In the case of A40U C105G, the “polymerase ribozyme fitness (log ratio)” value was -0.905.

With A41G C57U C85U C116U, the “polymerase ribozyme fitness (log ratio)” value amounted to 0.221.

For the variant A41G G50C C76U C103G C123U, the “polymerase ribozyme fitness (log ratio)” value was not above -4.2.

As to A41U A47U C93G, the “polymerase ribozyme fitness (log ratio)” value was -4.14.

With A41U A122C G126U U130G U146A, the “polymerase ribozyme fitness (log ratio)” value was not above -4.2.

Regarding A40U A49C C51U C69G U78A G117A, the “polymerase ribozyme fitness (log ratio)” value was not above -4.2.

Consider A40U A52G G94A C103U C108G, for which the “polymerase ribozyme fitness (log ratio)” value is not above -4.2.

A41C U45G G140C U146A: the “polymerase ribozyme fitness (log ratio)” value was not above -4.2.

Take A40U A49C C54G G70C C95G G126U A137U: the “polymerase ribozyme fitness (log ratio)” value was not above -4.2.

Turning to A40U A49C A60G C85G C103G C114U A115G, the “polymerase ribozyme fitness (log ratio)” value is not above -4.2.

For A40U A97G G124U G133C U139A U148G C149G, the “polymerase ribozyme fitness (log ratio)” value is not above -4.2.

For A41U A47C G59U U61A, the “polymerase ribozyme fitness (log ratio)” value was not above -4.2.

For the variant A40U U77A G92C G124A, the “polymerase ribozyme fitness (log ratio)” value was not above -4.2.

A41C G67A G83C G128C U139G: the “polymerase ribozyme fitness (log ratio)” value was not above -4.2.

In the case of A40U G74C C93U G143U U144A A150G, the “polymerase ribozyme fitness (log ratio)” value was not above -4.2.

For A41C U45G C69A C87A G94A A121C, the “polymerase ribozyme fitness (log ratio)” value was not above -4.2.

In the case of A40U G42C C79A A97G G141C, the “polymerase ribozyme fitness (log ratio)” value is not above -4.2.

For A41U G65U G141C, the “polymerase ribozyme fitness (log ratio)” value is not above -4.2.

Take A40U U55G G58A A97G: the “polymerase ribozyme fitness (log ratio)” value was -0.0754.

For A41G C76U C93G A106G A122G C129A G141U, the “polymerase ribozyme fitness (log ratio)” value is not above -4.2.

With A40U C93U A110G C149A, the “polymerase ribozyme fitness (log ratio)” value is not above -4.2.

For A40U C51U G83A, the “polymerase ribozyme fitness (log ratio)” value is -0.935.

For A41U C76U C95A U104G, the “polymerase ribozyme fitness (log ratio)” value was not above -4.2.

As for A41G G59U G68C, the “polymerase ribozyme fitness (log ratio)” value is not above -4.2.

For the variant A40G G71A G128A U148A, the “polymerase ribozyme fitness (log ratio)” value is not above -4.2.

Regarding A41G G59A U61A G67A U102A, the “polymerase ribozyme fitness (log ratio)” value is not above -4.2.

For A41C C57U U82C G141A, the “polymerase ribozyme fitness (log ratio)” value is -1.09.

Take A41C G67A U90G C103A: the “polymerase ribozyme fitness (log ratio)” value was not above -4.2.

Turning to A41C U45A G59A A73U C79U, the “polymerase ribozyme fitness (log ratio)” value was not above -4.2.

Turning to A41C U53A G68U G88C, the “polymerase ribozyme fitness (log ratio)” value was not above -4.2.

Regarding A41G U45A C54G G92U, the “polymerase ribozyme fitness (log ratio)” value is -2.74.

Turning to A41U G58C G68C G81A C116G A142C, the “polymerase ribozyme fitness (log ratio)” value was not above -4.2.

Regarding A41C C51U G86U C93U C118U G128A, the “polymerase ribozyme fitness (log ratio)” value is not above -4.2.

Regarding A41G G88U, the “polymerase ribozyme fitness (log ratio)” value is -3.82.

Take A40U A60G A66U A73G A91G C99G: the “polymerase ribozyme fitness (log ratio)” value is not above -4.2.

As for A41C G70C G94C C125U G143A, the “polymerase ribozyme fitness (log ratio)” value was not above -4.2.

For the variant A41U U145A, the “polymerase ribozyme fitness (log ratio)” value is -0.141.

Turning to A40U U55C U78G U151A, the “polymerase ribozyme fitness (log ratio)” value is not above -4.2.

In the case of A41C G86U C123U, the “polymerase ribozyme fitness (log ratio)” value was -2.13.

As to A40U C51U A73U C103G G128U, the “polymerase ribozyme fitness (log ratio)” value was not above -4.2.

With A41C C57A C99G U104C G126C U144G, the “polymerase ribozyme fitness (log ratio)” value is -3.09.

Turning to G42A A52C U55G U56A G84C C87A C105G C123G A150G, the “polymerase ribozyme fitness (log ratio)” value was not above -4.2.

With G42A A150C, the “polymerase ribozyme fitness (log ratio)” value was not above -4.2.

Regarding G42A A150G, the “polymerase ribozyme fitness (log ratio)” value was not above -4.2.

On to A40U U61A A122G, for which the “polymerase ribozyme fitness (log ratio)” value was -1.1.

On to A41C G48C U56A A89C C103U, for which the “polymerase ribozyme fitness (log ratio)” value is -2.34.

With A41C A47G, the “polymerase ribozyme fitness (log ratio)” value is -0.27.

Turning to A40U A120U G133C, the “polymerase ribozyme fitness (log ratio)” value was -1.72.

As for A41G A73U U78A G94U U135G, the “polymerase ribozyme fitness (log ratio)” value was not above -4.2.

Consider A41C U139G A150C, for which the “polymerase ribozyme fitness (log ratio)” value is not above -4.2.

Take A40U A52U U55A A138G: the “polymerase ribozyme fitness (log ratio)” value was not above -4.2.

Turning to A41C C54U C57G G67C G83C C131U U144A A150C, the “polymerase ribozyme fitness (log ratio)” value was not above -4.2.

For A40U C95U G124C G133U, the “polymerase ribozyme fitness (log ratio)” value is not above -4.2.

On to A41U G62C C95U C96A G112U A142U U146A A150G, for which the “polymerase ribozyme fitness (log ratio)” value is not above -4.2.

Take A40U C51A G59A G68C: the “polymerase ribozyme fitness (log ratio)” value was not above -4.2.

As to A41U G50A A52C C93U G100A A119C, the “polymerase ribozyme fitness (log ratio)” value is not above -4.2.

On to A41C A47C A60U, for which the “polymerase ribozyme fitness (log ratio)” value was -2.01.

For the variant A41C C54G C85U A106G G126A A138C, the “polymerase ribozyme fitness (log ratio)” value was not above -4.2.

On to A41U C54U G67A A97G U109G, for which the “polymerase ribozyme fitness (log ratio)” value was not above -4.2.

As to A41U C54U C72U C99G C123U, the “polymerase ribozyme fitness (log ratio)” value was not above -4.2.

With A41G G42C G65A G92U A119C C129U, the “polymerase ribozyme fitness (log ratio)” value is not above -4.2.

Turning to A41C C85U U90C G140A A147G, the “polymerase ribozyme fitness (log ratio)” value is not above -4.2.

Turning to A41U C51A G83A G92A G133C, the “polymerase ribozyme fitness (log ratio)” value is not above -4.2.

Consider A41C C43U A60G G68A G86U A122G, for which the “polymerase ribozyme fitness (log ratio)” value is not above -4.2.

For the variant A40U G42C C85A A113U C116A, the “polymerase ribozyme fitness (log ratio)” value was not above -4.2.

Consider A40G U90A, for which the “polymerase ribozyme fitness (log ratio)” value is not above -4.2.

As to A41C C76G A115G C118U, the “polymerase ribozyme fitness (log ratio)” value was not above -4.2.

Turning to A41C C96G C105U A106C G140U, the “polymerase ribozyme fitness (log ratio)” value is not above -4.2.
